Read counts are not given, so values of variants with three or more changes are uncertain.
B1: LINE1-mini (parent)
chain: GGCAGAGCUCAACACAGCGUGGCAAAGUGGCUGUGGCUAGACUGCC

Variants of: B1
Assay: self-cleavage, relative activity (ratio to wild type); higher = more cleavage; in vitro, sequencing; the parent is a self-cleaving ribozyme

| Variant | self-cleavage |
| --- | --- |
| G5U C13U C23G G33C | 0.02 |
| U9C C23U A39G | 0.02 |
| G5U C10A C18G A24C | 0.02 |
| A6C G7A C10U | 0.03 |
| C13G G17U A26C | 0.04 |
| U28G G29U C42G | 0.12 |
| U9C A41U C45U | 0.08 |
| A4U C8G A12U | 0.06 |
| A12C A24C U34A | 0.01 |
| G35U C37U G40U | 0.21 |
| G5U A16C U34G | 0.01 |
| A4C C8U G21U G29U C37G | 0.03 |
| G2U U9G G27A | 0.04 |
| A6U C23U G33C | 0.75 |
| A4C C8A A12C A25U | 0.05 |
| A16U C37A C45U | 0.11 |
| G29U C31A G35U | 0.02 |
| G5U C8U C15G A39C | 0.22 |
| G7A C10A C18A G21A G35U | 0.06 |
| C15G G17A G40U | 0.1 |
| A12C A16U G22A A26G A41C G44U C45A | 0 |
| G19A G21U G29U G36C | 0.01 |
| G7C A11U G21C G27C | 0.03 |
| G22U U28C G36A | 0.02 |

| Variant | self-cleavage |
| --- | --- |
| G19U C23A G36U G40U | 0.17 |
| G1A C18A C46G | 2.5 |
| G5C U9G G17U A41C | 0.02 |
| G5U G29U G35A | 0.1 |
| C8U C15U C18G | 0.45 |
| A6C G22U U32C | 0.02 |
| G17A U20G C23G | 0.01 |
| G5A C8U C23G G35C | 0.08 |
| C8U C13A A24G | 0.28 |
| G2C A26U G40A C45U | 0.36 |
| G1U A11C C15U A39C | 0 |
| C10A C18A U20G A25G C37U | 0 |
| C23A G33A G35C | 0.06 |
| G27A C37U G40U | 0.08 |
| G7U C15A G27U | 0 |
| A4G G5U C18G G29A C45G | 0.04 |
| A11C A16U C18U | 0.01 |
| G2A A16G G27C U38C | 0.07 |
| A6U C18U U20G G30A C31U | 0.31 |
| C15U C18A G22A U28C C45U | 0.01 |
| C10U A16G A26C U38C U43A | 0.01 |
| C3U U20G A26C | 0.09 |
| G22C C31A A41U | 0.07 |
| A25G C37G C42U | 0.01 |

| Variant | self-cleavage |
| --- | --- |
| A6U A12U U20C G27A | 0.07 |
| C8A U28C C45G | 0.26 |
| G1A C3U G21A G30U U32A | 0.1 |
| C13A A14G C15G C18G A25C U43C | 0.01 |
| U9C G33A A39U | 0.02 |
| G7A A14G G36U | 0.21 |
| C3U G7U C13U C46U | 0.06 |
| C3U G33C G35A | 0 |
| A12G C13U C18A G19U | 0.05 |
| A4C A12C G27A C42U G44U | 0.01 |
| A4C C13A C46A | 0 |
| C15U C18U G27U U32A A41U | 0.04 |
| A6C C15A G22A | 0.03 |
| A16U U20C C23G | 0.17 |
| C3A A11G G19A U38C G40C | 0.03 |
| G5A G17A C37U | 0.04 |
| A11U A25C A39C | 0.01 |
| C13G A16G A26G G27U C42A G44U | 0.01 |
| A16U A41C C46G | 0 |
| C10G C31G C37A | 0.01 |
| G1A G2U A14C G36C G40U | 0.07 |
| A16G A25U C31A | 0.02 |
| C31U U43G C45U | 0.02 |
| G22C U28A G36A G40C | 0.03 |

| Variant | self-cleavage |
| --- | --- |
| G1U A39U G40A C42U | 0.01 |
| C13U C23G C42U | 0.16 |
| G5C G30U U38G | 0.07 |
| U9C C10A G17A G35U | 0.02 |
| G27A G30C U38A | 1.26 |
| A24C G29A U32A | 0.05 |
| U9C C13A C15A C23G A41U | 0 |
| U9G A11C U20A | 0.01 |
| C23U C37G G40U A41U | 0.16 |
| G1U U20A G36C U43C G44A | 0 |
| G1U G7C G22U G30U G44U | 0.16 |
| G1A G27C C31U U38A | 0.53 |
| G2U C10A A11U U28C C46U | 0 |
| C3U A26C U34C A39U | 0.03 |
| A14U A39G C42G | 0.04 |
| C13A U38G A39G | 0.03 |
| C3U G5U A25U C45A | 0.04 |
| G1C G2C C3A | 0.03 |
| G5A U9A A11G C18A G36U | 0.01 |
| C10U G30C G35U | 0.04 |
| A12U C31U A41U U43C | 0.03 |
| G17U G44A C45G C46A | 0.02 |
| A11U G19U C42G | 0.03 |
| C18A G19C G40A C45U | 0.02 |

| Variant | self-cleavage |
| --- | --- |
| G7C C8A U20G A39G | 0.09 |
| G5U C8G C13G | 0.03 |
| G7A C15U G19U G40U G44C | 0.1 |
| G2U U28G G40A | 0 |
| G5A C8G G17U G21C C46A | 0.03 |
| C18G G30C G40U | 0.2 |
| G2C G7A C15G U20C A41G C42G | 0.16 |
| C13U C18A G30C C31G | 0.02 |
| G2C G5C U20G C23U | 0.04 |
| G7C G17A A25U G27C G35A | 0.05 |
| U9G C10G U32G | 0.02 |
| A11C G27U G33C U34A G40A C42U C46U | 0.01 |
| A24U U28G G29C G44U | 0.13 |
| A6U G21C C46A | 0.59 |
| G7A G21U G30U C37G U38A A41C | 0.12 |
| G5A C8G C13A C23G | 0.01 |
| C8U C23A U28C U38A | 0.04 |
| C10A A16G G19U C31A | 0.01 |
| G1U A4C G7C G29U | 0.05 |
| C13U A14G C15G A16U C31U G36C C42A | 0.02 |
| A4G C18G C45G | 0.04 |
| C3G A11C G21U C31G C37G | 0.01 |
| G1C C15U C42A | 0.04 |
| C18U A25C G27A | 0.47 |

| Variant | self-cleavage |
| --- | --- |
| A14U U20C G40A | 0.01 |
| C18U A26U G44C | 0.2 |
| G21A U32C A39U A41U | 0.16 |
| G36A G40A A41C C45U | 0.11 |
| G5U U9G U43A G44C | 0.03 |
| G5U C8U G19A A26G | 0.18 |
| A4C C8A G21C G27C | 0.16 |
| G2C C15G G17C U32G | 0.03 |
| A26C U32A U43C | 0.31 |
| G2C G17C G30C | 0.07 |
| C3A C8A A16C G17C C46A | 0.05 |
| C3A U9A C10A | 0.05 |
| G1U A11C G27U G33C | 0 |
| G7C G27U C37U | 0.02 |
| G1A C31G G40C | 0.09 |
| G7U G19A G40A | 0.61 |
| A11U C15U U43A G44U C45A | 0.01 |
| A6C C18U A41G | 1.08 |
| G2C G5A G22U A39G | 0.03 |
| A24U C31U A39U | 0.03 |
| C15U U34A G44C | 0.07 |
| C10U C15G U20C U38A | 0.05 |
| G5U C8U C13A A14U A16G A26G | 0.32 |
| C18U G33A G36A | 0.03 |

| Variant | self-cleavage |
| --- | --- |
| A26C U28G U34C G36A C45G | 0.01 |
| A4C A11C G17A G19C G27A U32A | 0 |
| C13A C15U G22A U28C | 0.13 |
| C3U G7C C13A G19U A26U G35A | 0.06 |
| C10U G30U G40A C46A | 0 |
| G2A A24G U32C G44U | 0.15 |
| A4C G5A U43A | 0 |
| C15U G35A G40U | 0.05 |
| G7C A25C C31G | 0.03 |
| G5C C13G A39C | 0.05 |
| C10A C15U U34G | 0.02 |
| G17C G36A G40A G44C | 0.02 |
| C3G G17C C18A G35A | 0.13 |
| G1C G22A G44U | 0.06 |
| U34A C37G A39C | 0.02 |
| C10A G19U G21A A39G C45U | 0.09 |
| C3U C8U U20A | 0.01 |
| A16U C23A G36U | 0.04 |
| C13G G22U G29A | 0.32 |
| G1A G22A U34G | 1.38 |
| A4U C15U U28A U43A | 0.29 |
| G5A G17U G19C U28C C42A | 0.1 |
| U20C G30U U32G A39U C46A | 0.15 |

Reference: the RNAGym collection of RNA variant scans (doi:10.7554/elife.90254)
